Publication PMC3579931
Like-named read-outs stand apart in the source and are kept apart here. Results are given in words; binding and its absence hold for the method and conditions named. In cells and extracts the contact can be indirect. Some results given as binding are weak or reduced against the parent protein; the word gives no strength.

Protein sequences, listed by entry. Tags and fused reporters are not part of them.
UniProt P46737: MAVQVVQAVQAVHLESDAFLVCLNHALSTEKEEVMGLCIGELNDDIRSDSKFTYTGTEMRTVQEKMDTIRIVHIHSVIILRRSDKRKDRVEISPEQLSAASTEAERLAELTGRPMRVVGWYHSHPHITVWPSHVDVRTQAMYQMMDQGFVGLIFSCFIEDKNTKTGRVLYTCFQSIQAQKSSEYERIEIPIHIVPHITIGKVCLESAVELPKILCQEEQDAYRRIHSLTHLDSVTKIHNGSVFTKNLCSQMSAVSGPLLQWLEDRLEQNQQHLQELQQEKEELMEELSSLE
UniProt Q80V62: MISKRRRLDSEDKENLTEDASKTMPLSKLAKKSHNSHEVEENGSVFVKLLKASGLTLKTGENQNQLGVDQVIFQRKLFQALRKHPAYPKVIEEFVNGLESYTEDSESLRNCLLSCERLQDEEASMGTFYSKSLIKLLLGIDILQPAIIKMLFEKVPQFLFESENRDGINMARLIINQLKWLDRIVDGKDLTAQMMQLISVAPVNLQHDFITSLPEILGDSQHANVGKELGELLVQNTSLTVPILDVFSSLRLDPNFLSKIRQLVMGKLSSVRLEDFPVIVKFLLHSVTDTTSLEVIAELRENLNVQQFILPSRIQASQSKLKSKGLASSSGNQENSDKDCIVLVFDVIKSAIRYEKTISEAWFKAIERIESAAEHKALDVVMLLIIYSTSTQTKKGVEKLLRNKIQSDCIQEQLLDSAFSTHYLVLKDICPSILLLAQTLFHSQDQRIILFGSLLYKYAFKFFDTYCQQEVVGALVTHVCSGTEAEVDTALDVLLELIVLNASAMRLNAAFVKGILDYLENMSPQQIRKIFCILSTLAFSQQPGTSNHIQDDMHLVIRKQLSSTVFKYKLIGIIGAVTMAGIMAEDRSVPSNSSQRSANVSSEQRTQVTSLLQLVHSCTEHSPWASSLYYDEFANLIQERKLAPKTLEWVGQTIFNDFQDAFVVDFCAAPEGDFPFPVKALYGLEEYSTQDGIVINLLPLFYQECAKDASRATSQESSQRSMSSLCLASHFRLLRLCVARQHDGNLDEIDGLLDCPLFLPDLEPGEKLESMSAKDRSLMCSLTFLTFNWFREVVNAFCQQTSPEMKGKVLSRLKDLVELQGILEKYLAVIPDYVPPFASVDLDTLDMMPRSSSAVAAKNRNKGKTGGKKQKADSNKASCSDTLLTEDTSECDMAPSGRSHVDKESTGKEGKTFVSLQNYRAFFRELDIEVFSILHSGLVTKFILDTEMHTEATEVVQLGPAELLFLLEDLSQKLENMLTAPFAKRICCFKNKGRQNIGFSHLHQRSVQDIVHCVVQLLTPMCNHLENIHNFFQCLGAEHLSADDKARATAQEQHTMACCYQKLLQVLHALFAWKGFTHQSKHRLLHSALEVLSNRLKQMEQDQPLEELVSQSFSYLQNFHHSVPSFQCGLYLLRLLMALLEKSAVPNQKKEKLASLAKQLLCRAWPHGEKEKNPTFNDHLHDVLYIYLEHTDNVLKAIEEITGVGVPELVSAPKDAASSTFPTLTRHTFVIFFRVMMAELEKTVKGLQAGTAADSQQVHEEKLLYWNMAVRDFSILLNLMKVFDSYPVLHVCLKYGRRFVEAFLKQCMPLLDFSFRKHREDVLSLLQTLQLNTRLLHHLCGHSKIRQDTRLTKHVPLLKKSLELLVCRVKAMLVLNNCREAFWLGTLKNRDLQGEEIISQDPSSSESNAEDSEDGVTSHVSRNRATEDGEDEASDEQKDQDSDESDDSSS
UniProt P48754: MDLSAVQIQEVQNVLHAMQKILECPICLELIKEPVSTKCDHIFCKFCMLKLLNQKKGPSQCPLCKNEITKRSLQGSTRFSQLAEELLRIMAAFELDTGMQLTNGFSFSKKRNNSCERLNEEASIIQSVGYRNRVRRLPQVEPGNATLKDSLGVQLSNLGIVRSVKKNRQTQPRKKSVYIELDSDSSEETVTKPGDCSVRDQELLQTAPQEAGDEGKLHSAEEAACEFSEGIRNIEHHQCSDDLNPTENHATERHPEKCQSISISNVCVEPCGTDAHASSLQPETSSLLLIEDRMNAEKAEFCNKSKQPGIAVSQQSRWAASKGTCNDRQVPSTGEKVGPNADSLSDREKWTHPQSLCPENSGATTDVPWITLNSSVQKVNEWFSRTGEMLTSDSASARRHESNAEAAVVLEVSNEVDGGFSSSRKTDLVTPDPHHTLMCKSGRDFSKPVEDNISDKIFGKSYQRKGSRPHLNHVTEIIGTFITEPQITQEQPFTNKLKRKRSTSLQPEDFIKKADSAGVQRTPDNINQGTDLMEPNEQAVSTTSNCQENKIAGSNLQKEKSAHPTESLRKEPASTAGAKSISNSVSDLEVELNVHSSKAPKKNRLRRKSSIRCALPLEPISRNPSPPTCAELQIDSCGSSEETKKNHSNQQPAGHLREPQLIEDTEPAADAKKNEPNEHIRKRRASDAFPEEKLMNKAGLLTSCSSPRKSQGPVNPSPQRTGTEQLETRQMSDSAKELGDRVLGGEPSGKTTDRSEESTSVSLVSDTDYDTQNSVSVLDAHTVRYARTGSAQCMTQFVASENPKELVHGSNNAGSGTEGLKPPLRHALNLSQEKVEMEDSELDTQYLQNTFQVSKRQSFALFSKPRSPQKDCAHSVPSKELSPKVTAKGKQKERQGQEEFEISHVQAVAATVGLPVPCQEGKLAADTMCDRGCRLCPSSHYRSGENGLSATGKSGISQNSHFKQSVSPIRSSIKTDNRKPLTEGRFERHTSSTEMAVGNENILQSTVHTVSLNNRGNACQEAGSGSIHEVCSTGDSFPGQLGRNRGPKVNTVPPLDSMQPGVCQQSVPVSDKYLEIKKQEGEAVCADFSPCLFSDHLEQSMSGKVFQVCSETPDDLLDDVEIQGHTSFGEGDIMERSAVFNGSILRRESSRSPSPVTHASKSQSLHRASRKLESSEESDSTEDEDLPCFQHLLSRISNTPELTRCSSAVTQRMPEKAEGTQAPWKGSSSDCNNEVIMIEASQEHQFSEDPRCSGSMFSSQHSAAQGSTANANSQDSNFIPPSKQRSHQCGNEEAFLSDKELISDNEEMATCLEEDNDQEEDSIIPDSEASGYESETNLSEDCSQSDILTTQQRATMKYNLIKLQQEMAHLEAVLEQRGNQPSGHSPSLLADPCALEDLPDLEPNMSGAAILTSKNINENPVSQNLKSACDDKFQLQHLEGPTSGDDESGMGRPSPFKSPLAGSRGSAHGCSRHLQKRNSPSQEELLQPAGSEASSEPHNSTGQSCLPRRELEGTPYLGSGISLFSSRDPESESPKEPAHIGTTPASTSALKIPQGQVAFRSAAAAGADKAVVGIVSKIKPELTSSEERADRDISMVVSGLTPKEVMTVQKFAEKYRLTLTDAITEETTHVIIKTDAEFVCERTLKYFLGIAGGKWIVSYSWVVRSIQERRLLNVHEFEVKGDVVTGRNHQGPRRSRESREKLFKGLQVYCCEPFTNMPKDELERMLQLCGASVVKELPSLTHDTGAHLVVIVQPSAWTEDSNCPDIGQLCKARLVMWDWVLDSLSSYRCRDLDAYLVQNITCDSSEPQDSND

T1: Gametogenetin isoform GGN1 (mouse (endogenous in testis)) (UniProt Q80WJ1)
T1 sequence: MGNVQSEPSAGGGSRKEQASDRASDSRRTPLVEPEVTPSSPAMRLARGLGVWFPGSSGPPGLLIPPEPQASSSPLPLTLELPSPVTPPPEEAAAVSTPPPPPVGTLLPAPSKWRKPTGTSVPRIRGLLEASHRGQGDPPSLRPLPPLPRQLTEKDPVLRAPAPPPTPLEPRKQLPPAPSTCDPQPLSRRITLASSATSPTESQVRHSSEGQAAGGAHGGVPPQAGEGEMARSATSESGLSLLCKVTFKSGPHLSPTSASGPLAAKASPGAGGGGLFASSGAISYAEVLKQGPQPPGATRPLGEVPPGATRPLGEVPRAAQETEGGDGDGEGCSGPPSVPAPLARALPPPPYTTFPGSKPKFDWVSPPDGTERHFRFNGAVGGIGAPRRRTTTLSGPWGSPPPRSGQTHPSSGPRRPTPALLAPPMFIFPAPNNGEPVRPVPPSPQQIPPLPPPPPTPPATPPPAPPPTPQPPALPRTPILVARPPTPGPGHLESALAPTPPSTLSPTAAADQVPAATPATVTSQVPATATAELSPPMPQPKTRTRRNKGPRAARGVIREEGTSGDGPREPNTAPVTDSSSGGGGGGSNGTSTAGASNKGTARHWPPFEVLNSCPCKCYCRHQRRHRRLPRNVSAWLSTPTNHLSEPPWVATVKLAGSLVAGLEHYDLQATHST


Experiments:
[1] = target: T1, Gametogenetin isoform GGN1 (mouse (endogenous in testis)); assay: co-IP; goat GGN1 antibody conjugated to resin (AminoLink Plus), control goat IgG column; 4 mg postnatal day 20 mouse testis extract (50 mM Tris-HCl, 150 mM NaCl, 1% NP-40, 2 mM MgCl2, benzonase), overnight at 4°C; washed with PBS, eluted with 0.1 M glycine pH 2.7; immunoblot of eluates
[2] = target: T1, Gametogenetin isoform GGN1 (mouse (endogenous in testis)); assay: as above; remark: listed apart in the source
[3] = target: BRCC36 (BRCA1/BRCA2-containing complex, subunit 3) (mouse (endogenous in testis)) (UniProt P46737); assay: co-IP; reciprocal IP: BRCC36 antibody column, mouse testis extract, done as the GGN1 IP; immunoblot for GGN1

Row | Molecule | binding [1] | binding [2] | also measured
1 | FANCD2 (from UniProt Q80V62 1-1450) | binds | – | –
2 | BRCA1 (from UniProt P48754 1-1812) | no binding | – | –
3 | Gametogenetin isoform GGN1 (protein, UniProt Q80WJ1-1 1-673) MGNVQSEPSAGGGSRKEQASDRASDSRRTPLVEPEVTPSSPAMRLARGLGVWFPGSSGPPGLLIPPEPQASSSPLPLTLELPSPVTPPPEEAAAVSTPPPPPVGTLLPAPSKWRKPTGTSVPRIRGLLEASHRGQGDPPSLRPLPPLPRQLTEKDPVLRAPAPPPTPLEPRKQLPPAPSTCDPQPLSRRITLASSATSPTESQVRHSSEGQAAGGAHGGVPPQAGEGEMARSATSESGLSLLCKVTFKSGPHLSPTSASGPLAAKASPGAGGGGLFASSGAISYAEVLKQGPQPPGATRPLGEVPPGATRPLGEVPRAAQETEGGDGDGEGCSGPPSVPAPLARALPPPPYTTFPGSKPKFDWVSPPDGTERHFRFNGAVGGIGAPRRRTTTLSGPWGSPPPRSGQTHPSSGPRRPTPALLAPPMFIFPAPNNGEPVRPVPPSPQQIPPLPPPPPTPPATPPPAPPPTPQPPALPRTPILVARPPTPGPGHLESALAPTPPSTLSPTAAADQVPAATPATVTSQVPATATAELSPPMPQPKTRTRRNKGPRAARGVIREEGTSGDGPREPNTAPVTDSSSGGGGGGSNGTSTAGASNKGTARHWPPFEVLNSCPCKCYCRHQRRHRRLPRNVSAWLSTPTNHLSEPPWVATVKLAGSLVAGLEHYDLQATHST | – | – | binding [3]: binds
4 | FANCA (protein, UniProt Q9JL70 1-1439) MPGSPARGAAMGGGPRGLRKTWTELLAGRVKKQKYDPEREQKLKDSALKLLRYHQNMHDLLLEVEEPQCKRLRLSELIDRDSADASSDRSASFIRSAFRDQASRLGVPVGVLSAKVFARSVQQVCVEPSHPVLLSPEQSKKLSSLLMIARHLLAQNMFSRLTFCQELWKAQNSLLLEAMWRLHTHSVVSLQELLQSHPDSEAMAMWLFRNLRSLCEQIGASCPSPDTTEAMLSGLVQLLISRGFQGSSDPRRLVEPERLPQVATDVLQRMLAFSLDTLEADPQTTLDCQAVSGWIPIYSGHTCCGVVTENSLKSFFSHTLTQILTHKPVLKVSDAIQMQKEWSFAKTHHLLTDLHCRVLATLGPEESVGRLQEVLEMQEVNWQHVLSCVSTLVVCFPEAQQLVKGWVASLMARAFESYHLDSMVTAFLIVRQATLEGPYVFPSYADWFKESFGSSHGYHSCSKKTLVFLFKFLSDLVPWEAPRYMQVHIFHPPLVPSKYHSLLTDYISLAKTRLADLKVSLENVGLYEDLSSPGDIAERESQAVQDVKKAIMVFEQTGKIPMPVLEASIFRRPYYVSHFLPTLLAPRVLPEVPDPRVALIETLKRADKIPSSIYDAYRKACASAEKQQPENATSAQRTEADCAKEPLGLLTAALEELRALMTDPTQYSVISAQVAVVSEKLNAVLGHRNDGGSLQRAKIQLSVLPSTLQKQDQAVVDLLLTAFCQNLMAASSFVPPERQSPWAVLFVRTLCGHVLLPAVLTRLRQLLRHQGQSLSTSHVLGLAALAVHLGECRSMLPEVDPDVLAPSAGSLCVPDFLNSLLTCRTRDSLLFCMNFCTAAVSYCLCKFSALRNCLSPGLIKKFQFVVLRLFPEARAPCAPEHAACVPWRPLYLPSADWQRAALSLWRRDSFQELLKDKEFYLTYRDWVQLELEIQPEADVLSDMERHDFHQWAIYERYLPAPTALGGCGGDLEEACTVLVSEIMDFHQSSRSYNHSEDSDLVLGGRTGNKDILSRLQEIALDLELDQGSAVPHGCSTPQSHFLFRVFRRRLQALARPDSMATSLRRQQELLTCKRLLLCLPPSVLVGGPQAGQPISPNCGEFFSLVNSELRNFCCHGSVLTSDITIHFFRGLLRVCLRSQDPALVANQTLTECQTKCPVILTSALLWWSSLEPVLCGRWMRCYQSPLPRELRRLQEAREFASNFASASASPAPSPAWIAAAALHFAWRGVRKEDVTAHLQRLDCQREELLIALFFFSLMGLLSSYLTQRDTAEHLKAVDICAEVLTCLERRKVSWLVLFQLTEKDAKLGHLLHLAPDQHTRLLPLAFYSLLSCFSEGAAVREAAFLHVAVDMYLKLLQLFVDGETRLQGHSESQGSPVQLITKARVFLLQLIPQCPKQCFSNMTELLAGRGDCDPEVSNALRQRQQADPSFDLYQEPQLF | – | no binding | –
5 | FANCI (protein, UniProt Q8K368 1-1330) MDLKILSLATDKTTDKLQEFLQTLKDDDLASLLQNQAVKGRAVGTLLRAVLKGSPCSEEDGALRRYKIYSCCIQLVESGDLQQDVASEIIGLLMLEVHHFPGPLLVDLASDFVGAVREDRLVNGKSLELLPIILTALATKKEVLACGKGDLNGEEYKRQLIDTLCSVRWPQRYMIQLTSVFKDVCLTPEEMNLVVAKVLTMFSKLNLQEIPPLVYQLLVLSSKGSRRSVLDGIIAFFRELDKQHREEQSSDELSELITAPADELYHVEGTVILHIVFAIKLDCELGRELLKHLKAGQQGDPSKCLCPFSIALLLSLTRIQRFEEQVFDLLKTSVVKSFKDLQLLQGSKFLQTLVPQRTCVSTMILEVVRNSVHSWDHVTQGLIEFGFILMDSYGPKKILDGKAVEIGTSLSKMTNQHACKLGANILLETFKIHEMIRQEILEQVLNRVVTRTSSPINHFLDLFSDIIMYAPLILQNCSKVTETFDYLTFLPLQTVQGLLKAVQPLLKISMSMRDSLILVLRKAMFASQLDARKSAVAGFLLLLKNFKVLGSLPSSQCTQSIGVTQVRVDVHSRYSAVANETFCLEIIDSLKRSLGQQADIRLMLYDGFYDVLRRNSQLASSIMQTLFSQLKQFYEPEPDLLPPLKLGACVLTQGSQIFLQEPLDHLLSCIQHCLAWYKSRVVPLQQGDEGEEEEEELYSELDDMLESITVRMIKSELEDFELDKSADFSQNTNVGIKNNICACLIMGVCEVLMEYNFSISNFSKSKFEEILSLFTCYKKFSDILSEKAGKGKAKMTSKVSDSLLSLKFVSDLLTALFRDSIQSHEESLSVLRSSGEFMHYAVNVTLQKIQQLIRTGHVSGPDGQNPDKIFQNLCDITRVLLWRYTSIPTSVEESGKKEKGKSISLLCLEGLQKTFSVVLQFYQPKVQQFLQALDVMGTEEEEAGVTVTQRASFQIRQFQRSLLNLLSSEEDDFNSKEALLLIAVLSTLSRLLEPTSPQFVQMLSWTSKICKEYSQEDASFCKSLMNLFFSLHVLYKSPVTLLRDLSQDIHGQLGDIDQDVEIEKTDHFAVVNLRTAAPTVCLLVLSQAEKVLEEVDWLIAKIKGSANQETLSDKVTPEDASSQAVPPTLLIEKAIVMQLGTLVTFFHELVQTALPSGSCVDTLLKGLSKIYSTLTAFVKYYLQVCQSSRGIPNTVEKLVKLSGSHLTPVCYSFISYVQNKSSDAPKCSEKEKAAVSTTMAKVLRETKPIPNLVFAIEQYEKFLIQLSKKSKVNLMQHMKLSTSRDFKIKGSVLDMVLREDEEDENEEGTASAHTQQDREPAKKRRKKCLS | – | no binding | –

The next lines start with results.

Row | binding [1] | binding [2] | Molecule | also measured
6 | binds | – | BRCC36 (BRCA1/BRCA2-containing complex, subunit 3) (from UniProt P46737 1-291) | –
7 | – | binds | FANCL (Fanconi anemia complementation group L) (protein, UniProt Q9CR14 1-375) MDEAEASLLRHFPLLLPQNREKTVYEGFISAQGSDFHLRIVLPKDLQLKKARLLCSLQLKNILNEYHQVVQQRMKHSPDLMSFMMELKMILEVALKNKQELCVQPPSCSFCKDLLTEIGAIGWDKLACVESSFSTIKLKADDASGRKHLITVKLKAKYPVEPPDCVVDFPVPFSVSWTPQSSLVDVYSQFLVALETLKVFWDVMDEIDEKTWVLEPEKPPRSATARRIALGKNVSIAIEVDPRHPTMLPEFCFLGADHVTKPLGMKLSGSIHLWDPENSLLQNLKDVLEIDFPARSILEESDFSMDCGICYARHLNGAIPDQVCNNPQCGQPFHEICLYEWLRGLSTSRQSFNVFFGDCPYCSKPITLKMSGRKP | –
